According to PMC4336329 (PLoS ONE, 2015):
Screen size: about 310,000 compounds; about 2,200 (0.71%) showed an effect of 50% or more. The effect is printed as a negative number. Some of the results follow.

Each compound was assayed against human ether-à-go-go-related gene (hERG) potassium channel (human, UniProt Q12809) (assay: primary screen, population patch clamp on CHO cells stably expressing hERG).
human ether-à-go-go-related gene (hERG) potassium channel, sequence (Q12809 whole entry, looked up): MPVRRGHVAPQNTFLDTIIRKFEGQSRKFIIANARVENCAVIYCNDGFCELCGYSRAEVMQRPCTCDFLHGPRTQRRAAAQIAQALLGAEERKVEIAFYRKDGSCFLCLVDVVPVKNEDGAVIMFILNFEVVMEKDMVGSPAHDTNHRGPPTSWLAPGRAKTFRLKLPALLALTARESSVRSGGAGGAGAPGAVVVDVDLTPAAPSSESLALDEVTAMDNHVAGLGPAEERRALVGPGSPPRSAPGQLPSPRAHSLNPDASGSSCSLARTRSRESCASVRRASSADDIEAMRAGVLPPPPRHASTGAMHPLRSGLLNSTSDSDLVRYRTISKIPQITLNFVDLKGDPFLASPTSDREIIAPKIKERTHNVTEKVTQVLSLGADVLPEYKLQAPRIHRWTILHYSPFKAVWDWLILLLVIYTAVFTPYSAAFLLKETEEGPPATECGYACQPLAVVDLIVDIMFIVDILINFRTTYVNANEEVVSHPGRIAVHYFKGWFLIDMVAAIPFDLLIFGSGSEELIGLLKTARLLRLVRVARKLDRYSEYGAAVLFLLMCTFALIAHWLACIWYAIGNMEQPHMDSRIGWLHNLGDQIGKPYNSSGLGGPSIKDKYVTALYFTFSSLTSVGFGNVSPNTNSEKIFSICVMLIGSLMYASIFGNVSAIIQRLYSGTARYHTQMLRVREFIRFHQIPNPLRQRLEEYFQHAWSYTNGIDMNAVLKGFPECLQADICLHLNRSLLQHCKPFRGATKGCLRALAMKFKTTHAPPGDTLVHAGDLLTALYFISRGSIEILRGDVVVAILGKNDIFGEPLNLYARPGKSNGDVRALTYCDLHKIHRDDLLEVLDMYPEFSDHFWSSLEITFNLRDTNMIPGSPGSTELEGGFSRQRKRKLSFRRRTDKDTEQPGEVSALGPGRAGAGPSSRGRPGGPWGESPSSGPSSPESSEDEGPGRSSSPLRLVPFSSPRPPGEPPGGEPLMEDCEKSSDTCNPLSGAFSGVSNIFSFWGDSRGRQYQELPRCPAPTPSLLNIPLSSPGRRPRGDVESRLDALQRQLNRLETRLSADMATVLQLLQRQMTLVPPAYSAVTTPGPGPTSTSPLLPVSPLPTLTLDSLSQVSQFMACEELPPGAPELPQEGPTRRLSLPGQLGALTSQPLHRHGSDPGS

| Compound | hERG current change (%, negative = inhibition) at 1uM [%] |
| --- | --- |
| FC(F)Oc1ccc(/C=N/N2CCCCC2)c(OC(F)F)c1 | 3.83 |
| Cc1nc(-c2cccc(NC(=O)COc3ccc(Cl)cc3)c2)cs1 | 1.28 |
| O=C(COC(=O)c1nc(Cl)ccc1Cl)NC1CCS(=O)(=O)C1 (stereo not drawn) | 10.9 |
| Cc1ccc(C(=O)C(OC(=O)CNS(=O)(=O)c2ccccc2)c2ccccc2)cc1 (stereo not drawn) | 13.4 |
| NCCCC[C@@H](C(=O)N1CCNCC1)n1cc(CN)nn1 | 12.2 |
| COc1ccc(C2(C#N)CC[N+](C)(C)CC2)cc1.[Br-] | 2.71 |
| COCCn1c(N2CCN(c3ccc(OC)cc3)CC2)nc2c1c(=O)n(C)c(=O)n2C | 1.59 |
| CCOCCCNC(=S)Nc1cc(OCC)c(NC(=O)c2ccco2)cc1OCC | 7.7 |
| CC(C)(C)CC(C)(C)NCC(O)COc1ccc2c(c1)CCC2.Cl (stereo not drawn) | 8.51 |
| CCOC(=O)Cn1c(CN2CCN(c3cccc(Cl)c3)CC2)nc2c1c(=O)[nH]c(=O)n2C | 0.68 |
| O=C(Cn1cnc([N+](=O)[O-])c1)c1ccc(F)cc1 | 10.6 |
| CCCC[n+]1ccn(C2=C([O-])c3ccccc3C(=O)/C2=N\S(=O)(=O)c2ccc(Cl)cc2)c1 | -5.25 |
| CC(c1cccs1)N(Cc1ccco1)C(=O)Nc1ccc(Cl)c(Cl)c1 (stereo not drawn) | 0.717 |
| CCCCOC(=O)Nc1nnc(C(C)C)s1 | 11.5 |
| CCC(=O)NC(NC(=O)CC)C(Cl)Cl | -2.92 |
| CC(NC(=O)c1cc2ccccc2oc1=O)c1ccccc1 (stereo not drawn) | 3.46 |
| CCCC1(c2ccccc2)NC(=O)N(CC(=O)NCC2COc3ccccc3O2)C1=O (stereo not drawn) | 3.79 |
| CC1CCC(NC(=O)CCCn2sc3ccccc3c2=O)CC1 (stereo not drawn) | 17 |
| O=C(NS(=O)(=O)c1ccccc1[N+](=O)[O-])c1ccccc1 | 13.2 |
| Cc1cc(C)c(NC(=O)C(C)OC(=O)c2cc(Br)c(Br)s2)c(C)c1 (stereo not drawn) | 11 |
| Cc1nn(-c2ccccc2)c(C)c1/C=N/n1c(-c2ccc(C(C)(C)C)cc2)n[nH]c1=S | 10.9 |
| COc1ccc(NC(=O)C2CCCN(C(=O)c3ccc(Cl)cc3)C2)cc1Cl (stereo not drawn) | 9.25 |
| O=C(CNS(=O)(=O)c1ccc(Cl)cc1)N/N=C/c1ccco1 | 14.6 |

| Compound | hERG current change (%, negative = inhibition) at 1uM [%] |
| --- | --- |
| CCC1CCCCN1CCNS(=O)(=O)c1ccc2c(c1)CCN2C(C)=O (stereo not drawn) | -5.51 |
| Cc1ccc(CS(=O)Cc2ccc(C(=O)NCCc3ccccc3)o2)cc1 (stereo not drawn) | 2.62 |
| Cc1ccc(C(=O)Nc2nnc(S(=O)(=O)N3CCN(c4ccc(F)cc4)CC3)s2)cc1 | 6.33 |
| COC(=O)c1c(NC(=O)c2cccc(S(=O)(=O)N3CCN(C)CC3)c2)sc(C)c1C | 16.3 |
| CC(NC(=O)Cn1cccc1C(=O)c1ccccc1)c1ccccc1 (stereo not drawn) | 18.7 |
| CCC1(C)Cc2[nH]c(=O)c(C#N)cc2CO1 (stereo not drawn) | 11.5 |
| CCn1c(=S)[nH]c2cc(C(=O)OC)ccc2c1=O | 8.38 |
| O=C(Nc1ccccc1[N+](=O)[O-])c1cc(S(=O)(=O)Nc2ccccn2)ccc1Cl | 12.4 |
| Cc1nc(N)nc(Cl)c1Cc1ccc(Cl)cc1 | 16.2 |
| NS(=O)(=O)c1ccc(CCNc2nc(C(F)(F)F)nc3ccccc23)cc1 | 14.2 |
| CC(=O)N/C(=C\c1ccccc1)C(=O)OCCCOC(=O)/C(=C/c1ccccc1)NC(C)=O | 12.5 |
| C/C(=N\O)c1ccc2c3ccccc3n(C)c2c1 | 19.8 |
| Cc1csc2c(SCC(=O)NNS(=O)(=O)c3cccc(C(F)(F)F)c3)ncnc12 | 19 |
| Cc1cc(=O)[nH]c(SCC(=O)Nc2ccc(C)c(S(=O)(=O)N3CCCCC3)c2)n1 | 6.71 |
| Cc1cc(NC(=O)CCC(=O)N(CC2CCCO2)C(C(=O)NC2CCCC2)c2ccccc2C)no1 (stereo not drawn) | 9.52 |
| O=C(CSc1ccccc1Cl)c1ccco1 | 0.27 |
| COc1ccc(C(=O)C2CCCN(C(=O)c3ccoc3C)C2)cc1F (stereo not drawn) | 7.19 |
| Cl.NCCCC[C@H](N)c1nnc([C@H](CCC(=O)O)NC(=O)C2CCNCC2)o1 | 9.55 |
| C/C=C/C(=O)OCC(=O)Nc1cc(OC)c([N+](=O)[O-])cc1C | 6.58 |
| CCOC(=O)c1cnc2c(-c3ccccc3)cnn2c1C | 5.5 |
| CC(NCC1COc2ccccc2O1)C1COc2ccccc2O1 (stereo not drawn) | 14.1 |
| O=C(COc1ncnc2ccccc12)c1ccc(Cl)cc1 | 19.3 |
| COc1ccc(SCC(=O)c2cc(C)c(OC(=S)N(C)C)c(C)c2)cc1 | 13.1 |

| Compound | hERG current change (%, negative = inhibition) at 1uM [%] |
| --- | --- |
| CC1CC(C)(C)NC(=S)N1CCCC(=O)Nc1ccc(Cl)cc1 (stereo not drawn) | 0.795 |
| O=c1cc(CSc2nnc(-c3ccccc3)o2)c2ccccc2[nH]1 | 10.7 |
| CCOc1cc(N2CCOCC2)c(OCC)cc1NS(=O)(=O)c1ccc(Cl)s1 | 10.5 |
| O=C1C2CC=CCC2C(=O)N1c1ncn[nH]1 (stereo not drawn) | 15.1 |
| C/C(=N/NC(=O)c1ccccn1)c1ccc(O)cc1 | 5.45 |
| COC(=O)c1c(C(=O)OC)c(-c2cccc(F)c2)n2c1CS(=O)(=O)C2 | -1.71 |
| CCC(=NCc1ccco1)c1c(O)n(-c2ccccc2C)c(=O)[nH]c1=O | 17.2 |
| CCN(CC)CCNC(=O)c1cn(CCOC)c(=O)c2c1c1ccccc1n2C | 7.86 |
| O=C(COc1ccc2ccccc2c1Br)N1CCCCC1 | 8.38 |
| O=C(C1CCC1)N1CCC(O)(c2cccc(F)c2)CC1 | 1.27 |
| C=CCNC(=O)c1c(Br)cnn1-c1ccc(C)cc1 | 15.5 |
| CC(C)(C)C1=C(C#N)C(c2ccc3c(c2)OCO3)C(C#N)=C(N)O1 (stereo not drawn) | 3.47 |
| CCC1CCCCN1CCCNC(=O)Cn1ncn2nc(-c3ccc(OC)cc3)cc2c1=O (stereo not drawn) | -14.9 |
| CCCCC(=O)c1ccc(O)cc1O | 4.84 |
| Cc1nn2c(-n3ccnc3C)c3c(nc2c1-c1ccccc1)CCC3 | 2.09 |
| O=C(O)CSCC(=O)Nc1ccc(C2CCCCC2)cc1 | -1.73 |
| COc1ccccc1CCNC(=O)C(=O)NCC1OCCN1S(=O)(=O)c1ccc(Cl)cc1 (stereo not drawn) | 11.2 |
| CCN(c1ccc2c(c1)OCO2)S(=O)(=O)c1cc(Br)cc2c1N(C(=O)C1CC1)CC2 | 8.82 |
| Cc1nc2cc(NC(=O)c3ccc(Br)s3)ccc2s1 | 13.9 |
| O=C(Nc1ccc(N2CCN(C(=O)c3ccco3)CC2)cc1)c1cccc(F)c1 | -3.64 |
| CCOC(=O)c1ccc(S(=O)(=O)N2CCC(C(=O)O)CC2)cc1 | 18.5 |
| CC1CCN(C(=O)c2cc(-c3ccc(Cl)c(Cl)c3)on2)CC1 | 7.09 |
| CS(=O)(=O)N1CCc2cc(C(=O)Nc3ccc(Cl)cc3)ccc21 | 1.76 |

| Compound | hERG current change (%, negative = inhibition) at 1uM [%] |
| --- | --- |
| c1nc2sc3c(c2c2nnnn12)CCCC3 | 13.4 |
| Cc1ccc(C(O)(C(=O)NNS(=O)(=O)c2ccc(C)cc2)c2ccc(C)cc2)cc1 | 13.4 |
| CC1CCN(Cc2c(C#N)c3ccccc3n2C)CC1 | 20 |
| COc1cc(O)c(C(CC(=O)N2CCCCC2)c2cc(OC)c(OC)c(OC)c2)c(OC)c1 (stereo not drawn) | 14.3 |
| COc1cc(/C=C2/SC(=S)N(c3c(C)n(C)n(-c4ccccc4)c3=O)C2=O)ccc1O | 17.2 |
| COc1ccc(NC(=O)CSc2nnc(NC(=O)c3ccco3)s2)cc1OC | 8.59 |
| Cc1nn(C)c(C(=O)NCc2ccc(Cl)cc2)c1Cl | 9.39 |
| Cc1cc(C(=O)Nc2ccccc2)oc(=O)c1 | 12.7 |
| CCC(=O)NC(=S)Nc1cccc(Cl)c1N1CCCCC1 | -8.33 |
| CC(C1CC1)N(Cc1ccccc1)C(=S)Nc1cccc(C(F)(F)F)c1 (stereo not drawn) | 6.07 |
| CCOc1ccc(N2C(=O)CC(N(Cc3ccco3)C(=O)CCC(=O)O)C2=O)cc1 (stereo not drawn) | 13.2 |
| Clc1ccc(OC2CCN(Cc3nc(CC4CC4)no3)CC2)cc1 | -0.691 |
| COC(=O)c1ccc(Oc2nc(Nc3ccc(F)cc3)nc(N3CCCC3)n2)cc1 | 14.9 |
| O=C1CC(C(=O)NCCc2ccccc2)SC(=Nc2ccccc2)N1 (stereo not drawn) | 12.1 |
| O=C(CCC(=O)c1cccs1)NCc1cccnc1 | 14.7 |
| CCC(=O)c1ccc(OCC(=O)OCC(=O)Nc2sccc2C(N)=O)cc1 | 6.84 |
| Cc1ccc(-c2noc(-c3c(C)noc3C)n2)cc1 | 13.1 |
| Cc1cc(NC(=O)CSc2nc(=O)cc(N)n2-c2ccc(C)c(C)c2)no1 | 10.9 |
| CCCCNS(=O)(=O)c1ccc(NC(=O)Cc2ccccc2[N+](=O)[O-])cc1 | 7.87 |
| CCOCCCn1c(C)nc2c(c1=O)c1nc3ccccc3nc1n2-c1ccc(C)cc1 | -0.542 |
| CCCCNC(=S)N1CCN(C)CC1.O=C(O)C(=O)O | 15.3 |
